Data on 83 molecules can be found in ChEMBL document CHEMBL1201862, “PubChem BioAssay data set” (2004).

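Tested at 5 concentrations; 48 h exposure; 96-well plates; endpoints linearly interpolated, else capped at highest concentration. GI50 marks 50% less growth.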 Active and inactive are the calls of the source. Rule as the data show it: active = GI50 up to about 1.1 µM and inactive = higher. Where only a bound is given, the exact number is not on record here.

In this assay the test system is NCI-H322M. The assay is described as follows: NCI tumour cell line growth inhibition, 48 h.
As for `[O-]c1c2c(nn1-c1ccccc1)c1ccccc1c[n+]2Cc1ccccc1`, the GI50 is inactive: > 100 µM.

Consider `COc1ccc(C2=C(N)c3ccccc3C2=O)cc1`, for which the GI50 is inactive: > 100 µM.

As for `N#Cc1c(NC(=O)C(F)(F)F)sc2c3c(=O)c4ccccc4c(=O)c=3oc3ccccc3c12`, the GI50 was inactive: 19.5 µM.

As for `CCCCCCCCCCCCCCCCOCC(O)CO` (stereo not drawn), the GI50 was inactive: 20.9 µM.

`O=C(O)Cc1c(O)ccc2ccccc12`: the GI50 is inactive: > 100 µM.

For the molecule `C=CC(=O)N1C/C(=C\c2ccc(OC)cc2)C(=O)/C(=C/c2ccc(OC)cc2)C1`, the GI50 was inactive: 4.32 µM.

`O=C(OCCC12CC3CC(CC(C3)C1)C2)c1ccc(NCc2cc(O)ccc2O)cc1`: the GI50 was inactive: 8.73 µM.

Consider `COC1CCC(O)C(/C=C/[N+](=O)[O-])C1` (stereo not drawn), for which the GI50 is inactive: 10.9 µM.

Take `Cc1cc(C)nc(NS(=O)(=O)c2ccc(Nc3c4ccccc4nc4c(C(=O)Nc5ccc(S(=O)(=O)Nc6cc(C)on6)cc5)cccc34)cc2)n1`: the GI50 was inactive: 23.7 µM.

Take `CN1C(=O)C(=O)N2c3ccc(Cl)cc3C3(c4ccccc4)N=CC12O3` (stereo not drawn): the GI50 is inactive: 12.8 µM.

For `CN1C(=O)c2c(ccc3c2OCO3)C2C(O)Cc3cc4c(cc3C21)OCO4` (stereo not drawn), the GI50 was inactive: 4.93 µM.

Consider `Cc1cc2c(cc1C)[n+]([O-])c(C#N)c(Cl)[n+]2[O-]`, for which the GI50 is inactive: 15.6 µM.

Turning to `CCOC(=O)/C(=C\c1ccc(O)c(OC)c1)C(=O)c1ccccc1`, the GI50 is inactive: 22.5 µM.

In the case of `CCC(C#N)N(Cc1cccc(CN(C(C)=O)C(C#N)CC)c1)C(C)=O` (stereo not drawn), the GI50 is inactive: > 100 µM.

Take `CNC(=O)CCCN(C)C(=O)CCCCC(=O)N(C)C`: the GI50 is inactive: > 53.8 µM.

As to `CC(C)(C)C1CCN(C(=O)c2ccccc2)CC1`, the GI50 is inactive: > 100 µM.

As for `CCN(CCCN(CC)C(=O)Nc1ccccc1)C(=O)Nc1ccccc1`, the GI50 was inactive: > 100 µM.

Turning to `O=c1cccc(Cl)[nH]1`, the GI50 was inactive: > 100 µM.

Consider `COc1ccc(C(=O)Oc2c(C#N)sc3c2c(=O)n(-c2ccccc2)c(=S)n3-c2ccccc2)cc1`, for which the GI50 was inactive: 27.9 µM.

In the case of `CCOP(=O)(OCC)OC(C#N)c1ccc(-c2ccccc2)cc1` (stereo not drawn), the GI50 is inactive: 71.8 µM.

On to `O=C1OC(Cl)C(N=P(c2ccccc2)(c2ccccc2)c2ccccc2)=C1Cl` (stereo not drawn), for which the GI50 is inactive: > 100 µM.

For the molecule `NC(=O)N/N=C1/CCC(O)CC1CC(=O)O` (stereo not drawn), the GI50 was inactive: > 100 µM.

For the molecule `C/C(=C\c1ccccc1)C(=O)NCc1ccc(C(=O)NCCc2ccccc2)cc1`, the GI50 was inactive: > 100 µM.

For the molecule `O=C1SC(c2ccc(Cl)cc2)(c2ccc(Cl)cc2)c2ccccc21`, the GI50 was inactive: > 100 µM.

As for `N#Cc1nc(COCCOCc2ccccc2)oc1N`, the GI50 was inactive: > 100 µM.

Regarding `C[C@@]12c3c4ccc(C=O)c3Oc3ccc(C=O)c(c31)Oc1c(C=O)ccc(c12)O4`, the GI50 was inactive: > 100 µM.

As to `CC1=C(C(=O)Nc2ccc([N+](=O)[O-])cc2)C(c2ccccc2O)C(C(=O)Nc2ccc([N+](=O)[O-])cc2)=C(C)N1`, the GI50 was inactive: 25.5 µM.

In the case of `CC(C)CC1C(=O)NCCC(NC(=O)C(Cc2ccc(OC(C)(C)C)cc2)NC(=O)OC(C)(C)C)C(=O)NC(Cc2ccccc2)C(=O)NC(Cc2ccccc2)NC1=O` (stereo not drawn), the GI50 was inactive: 4.89 µM.

As for `COc1cccc(NC(=O)CC(=O)NN)c1`, the GI50 is inactive: > 100 µM.

Regarding `O=C(O)c1ccccc1/C=N\N=C1NCCCCN1`, the GI50 was inactive: > 100 µM.

Take `COC(=O)c1c2c(cc3c1CC1(Cc4cc5c(c(C=O)c4C1)CCCC5)C3)CCCC2` (stereo not drawn): the GI50 was inactive: 95.1 µM.

As for `C/C(=N/NC(=S)Nc1ccccc1C)c1ccccn1`, the GI50 is active: < 0.01 µM.

For the molecule `Nc1ncnc(NC2C=C(CO)C(O)C2O)c1[N+](=O)[O-]` (stereo not drawn), the GI50 is inactive: > 100 µM.

For the molecule `COc1cc2c(c(C)c1O)[C@H]1COc3ccccc3[C@H]1O2`, the GI50 is inactive: 30.8 µM.

With `C=C(C)[C@@H]1C[C@H]2O[C@](O)(C(=C)CC(=O)/C=C(/C)C[C@@H]3OC(=O)[C@]24O[C@@H]34)[C@H]1O`, the GI50 was inactive: > 100 µM.

As to `O=C(CCC1OCCO1)Nc1cc(NCc2ccccc2)ccc1OCc1ccccc1`, the GI50 is inactive: 34.1 µM.

On to `N=C(N)NS(=O)(=O)c1ccc(Nc2c3ccccc3nc3c(C(=O)NCCO)cccc23)cc1`, for which the GI50 was active: 0.17 µM.

As to `COCOc1ccc(C2(O)Oc3cc(OCOC)ccc3C2C)c(O)c1` (stereo not drawn), the GI50 is inactive: 17.5 µM.

As to `CC(=O)NC(=O)/N=C1\NCCC(=O)N1CCc1c[nH]c2ccccc12`, the GI50 was inactive: > 100 µM.

In the case of `Cc1[nH]c2ccccc2c1C1Cc2ccccc2N1C(=O)/C(Cl)=C/c1ccccc1` (stereo not drawn), the GI50 was inactive: > 100 µM.

In the case of `CC(C)(C)[Si](C)(C)OCC1OC(n2ccc(=O)[nH]c2=O)C(O[Si](C)(C)C(C)(C)C)/C1=N/O` (stereo not drawn), the GI50 is inactive: 5.14 µM.

For the molecule `CC(=O)OC(Cc1c(O)c2c(C)cccc2oc1=O)C(C)(C)O` (stereo not drawn), the GI50 was inactive: > 100 µM.

With `CCNC(=O)COc1ccc(Cl)c(C)c1`, the GI50 is inactive: > 100 µM.

Consider `CCc1c(CNC2=NCCN2)c(CC)c(CNC2=NCCN2)c(CC)c1CNC1=NCCN1`, for which the GI50 was inactive: > 100 µM.

With `COC1=CC(=O)C2C(C1=O)[C@@H]1c3ccccc3C[C@H]21` (stereo partly drawn), the GI50 was inactive: > 100 µM.

Turning to `O=C(O)c1ccc(/C=N/N=C2c3ccccc3-c3ccccc32)cc1`, the GI50 was inactive: > 100 µM.

Regarding `[O-][S+](Nc1ccccc1)c1ccc(-c2ccccc2)cc1` (stereo not drawn), the GI50 was inactive: > 100 µM.

With `O=C1c2ccccc2C2(O)Nc3cc(O)ccc3C12O` (stereo not drawn), the GI50 is inactive: > 100 µM.

Take `Cc1cccc(NC(=O)CCl)c1`: the GI50 is inactive: > 10 µM.

Consider `Cc1ccc(S(=O)(=O)n2ccc(-c3ccc4ccn(S(=O)(=O)c5ccc(C)cc5)c4c3)c2)cc1`, for which the GI50 was inactive: > 100 µM.

Regarding `CCOC(=O)/C(C#N)=C/c1coc2cc(C)cc(C)c2c1=O`, the GI50 was inactive: > 100 µM.

Take `C/C(=N\NS(=O)(=O)c1ccccc1)c1ccccc1`: the GI50 is inactive: > 100 µM.

Take `C=C1C[C@@H](O)[C@@H](Br)C(C)(C)[C@]12CCC(C)(Br)C(Cl)C2` (stereo partly drawn): the GI50 was inactive: > 50 µM.

For the molecule `Cc1cc2c(cc1Cl)SC(NNC1=NCCN1)=NS2(=O)=O`, the GI50 is inactive: > 10 µM.

On to `CC(C)(C)[Si](C)(C)OCC1OC(n2cnc3c(=O)[nH]cnc32)CC1O` (stereo not drawn), for which the GI50 was inactive: > 100 µM.

Take `OCCNc1nc2c(N3CCCC3)nc(N3CCNCC3)nc2nc1NCc1ccccc1`: the GI50 is inactive: 12.6 µM.

On to `CC(=O)Nc1ccc2c3c(cc(O)c2c1)N(C(=O)CCCC(=O)N1CC(CCl)c2c1cc(O)c1cc(NC(C)=O)ccc21)CC3CCl` (stereo not drawn), for which the GI50 was active: 0.0223 µM.

Consider `CC(=O)N(CCCCNC(=O)C(F)(F)F)CCCNC(=O)C(F)(F)F`, for which the GI50 is inactive: > 100 µM.

On to `Cc1nnc(N)nc1C/C=C/C(Sc1ccc(Cl)cc1)c1ccccc1` (stereo not drawn), for which the GI50 was inactive: 4.71 µM.

As to `O=C(CCN1CCOCC1)/C(=C/c1ccccc1)c1ccccc1`, the GI50 is inactive: 15.3 µM.

With `COC(=O)C1=C(OC(=O)/C(=C/c2ccc(Cl)cc2Cl)c2ccc(Cl)cc2Cl)C(C(=O)OC)[C@@]2(O)[C@@H](C(=O)OC)[C@H](C)C[C@@H]1[C@@H]2C(=O)OC` (stereo partly drawn), the GI50 is inactive: > 100 µM.

On to `O=C(NC(=S)Nc1ccc(Br)cc1)c1ccc2c(c1)Sc1ccccc1O2`, for which the GI50 is inactive: > 100 µM.

On to `CC1(C)CC(=O)C(CC2C(=O)c3ccccc3C2=O)C(=O)C1C(=O)C(=O)Nc1cccc2ccc(O)cc12` (stereo not drawn), for which the GI50 is inactive: > 100 µM.

In the case of `Cc1ccc(-c2cc(=O)c3cc(C)c(C)c(C(=O)O)c3o2)cc1C`, the GI50 is inactive: > 100 µM.

On to `COc1ccc(C(O)c2ccccn2)cc1` (stereo not drawn), for which the GI50 is inactive: > 100 µM.

As to `Cc1cn(Cc2cn(CC3OC(n4cc(C)c(=O)[nH]c4=O)CC3O)nn2)c(=O)[nH]c1=O` (stereo not drawn), the GI50 was inactive: > 100 µM.

With `O=C1NC2OC(C(O)CO)C(O)C2O1` (stereo not drawn), the GI50 is inactive: > 100 µM.

Take `NCCN1C(=O)c2cc(Cl)c(Cl)cc2C1(O)c1ccc(Cl)cc1` (stereo not drawn): the GI50 was inactive: 2.61 µM.

With `O=c1c2c(-c3ccccc3)onc2n(-c2ccccc2)c(=O)n1-c1ccccc1`, the GI50 is inactive: > 100 µM.

With `CCOC(=N)CC(=O)Nc1ccccc1CC`, the GI50 was inactive: > 100 µM.

Turning to `Cc1c(NC(=O)C(C)(C)Br)c(=O)oc2c(C)c3occc(=O)c3cc12`, the GI50 was inactive: 91 µM.

For the molecule `O=C(/C=C/c1ccc(O)cc1)c1ccc2c(c1)OCO2`, the GI50 was inactive: 28.4 µM.

In the case of `O=C1c2ccccc2C(=O)c2sc(Nc3cccc(Cl)c3)nc21`, the GI50 was inactive: 2.25 µM.

Regarding `c1ccc(/C(=N\Nc2nc3ccccc3s2)c2ccccn2)cc1`, the GI50 is inactive: 1.66 µM.

As to `CN1c2ccccc2SC2C(c3ccccc3)=NOC21` (stereo not drawn), the GI50 was inactive: > 100 µM.

With `O=C(c1c(F)c(F)c(F)c(F)c1F)c1c(F)c(F)c(F)c(F)c1F`, the GI50 was inactive: 3.97 µM.

For `Cc1noc(/N=C2\C=C(O)C(=O)c3ccccc32)c1C`, the GI50 was inactive: 12.9 µM.

With `ON=C1CCCCC(=NO)CCCC1`, the GI50 is inactive: > 100 µM.

Regarding `C[C@H](CCC(=O)O)[C@H]1CC[C@H]2[C@@H]3C(=O)C[C@@H]4C[C@H](O)CC[C@]4(C)[C@H]3C[C@H](O)[C@]12C`, the GI50 was inactive: > 100 µM.

Turning to `O=C(O)CN(c1ccccc1)S(=O)(=O)c1ccc(NC(=O)c2ccccc2)cc1`, the GI50 is inactive: > 100 µM.

With `COc1cc2c(c(OC)c1OC)-c1ccc(SC)c(=O)cc1[C@@H](NCc1ccc(C#N)cc1)CC2`, the GI50 is active: 0.00405 µM.

Regarding `Oc1ccc(-c2nc3ccc(Cl)cc3s2)cc1`, the GI50 is inactive: 17.5 µM.

With `COc1cccc(/C=C(/C(=O)O)c2cc(OC)c(OC)c(OC)c2)c1`, the GI50 was inactive: > 100 µM.
